{"source": "paper PMC4336329", "about": "(PLoS ONE, 2015)", "note": "Screen size: about 310,000 compounds; about 14,000 (4.5%) showed an effect of 50% or more. Effects have a minus sign here. The list shows a part of the results.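 Also: peak tail current of the secondary pulse compared with the same well before compound.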", "data": [{"molecular_target": "human ether-à-go-go-related gene (hERG) potassium channel (human, UniProt Q12809)", "sequence (Q12809 whole entry, looked up)": "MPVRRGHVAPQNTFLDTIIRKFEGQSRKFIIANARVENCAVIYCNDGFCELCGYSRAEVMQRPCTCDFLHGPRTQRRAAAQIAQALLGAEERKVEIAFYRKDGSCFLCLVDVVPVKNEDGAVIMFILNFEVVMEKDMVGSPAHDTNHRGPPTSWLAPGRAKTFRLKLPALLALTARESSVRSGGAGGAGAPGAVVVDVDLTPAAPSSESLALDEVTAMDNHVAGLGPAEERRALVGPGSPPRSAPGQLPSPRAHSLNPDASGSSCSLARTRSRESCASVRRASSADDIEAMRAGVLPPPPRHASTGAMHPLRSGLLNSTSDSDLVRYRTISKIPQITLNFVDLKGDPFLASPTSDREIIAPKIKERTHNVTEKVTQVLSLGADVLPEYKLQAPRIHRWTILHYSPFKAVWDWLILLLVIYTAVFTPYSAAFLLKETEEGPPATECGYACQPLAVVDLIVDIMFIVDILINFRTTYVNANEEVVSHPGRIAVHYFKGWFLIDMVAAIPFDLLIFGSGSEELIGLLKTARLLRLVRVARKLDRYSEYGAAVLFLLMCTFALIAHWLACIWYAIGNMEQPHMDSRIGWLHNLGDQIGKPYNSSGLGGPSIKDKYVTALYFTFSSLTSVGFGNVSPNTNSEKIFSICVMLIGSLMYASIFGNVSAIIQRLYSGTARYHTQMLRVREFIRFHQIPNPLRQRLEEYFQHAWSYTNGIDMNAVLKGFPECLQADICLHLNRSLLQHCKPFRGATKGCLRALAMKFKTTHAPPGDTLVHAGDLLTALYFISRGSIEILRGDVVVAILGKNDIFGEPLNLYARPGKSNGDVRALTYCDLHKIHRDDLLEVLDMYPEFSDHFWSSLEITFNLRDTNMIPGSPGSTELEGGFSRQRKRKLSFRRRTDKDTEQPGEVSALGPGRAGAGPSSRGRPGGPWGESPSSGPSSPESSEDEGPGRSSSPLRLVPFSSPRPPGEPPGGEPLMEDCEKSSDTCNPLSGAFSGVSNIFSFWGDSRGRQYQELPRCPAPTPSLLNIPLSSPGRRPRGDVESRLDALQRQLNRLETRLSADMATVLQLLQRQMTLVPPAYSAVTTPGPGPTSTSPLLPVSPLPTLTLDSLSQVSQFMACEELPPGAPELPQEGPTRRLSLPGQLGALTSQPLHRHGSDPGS", "test": "primary screen, population patch clamp on CHO cells stably expressing hERG", "units": {"hERG current change (%, negative = inhibition) at 10uM": "%"}, "values": [{"smiles": "CC(OCC(O)CN(C)CCOc1ccccc1)c1ccc(Cl)cc1", "note": "(centres unmarked)", "hERG current change (%, negative = inhibition) at 10uM": -43.5}, {"smiles": "NS(=O)(=O)c1ccc(N/C=C\\C(=O)c2ccc3ccccc3c2)cc1", "hERG current change (%, negative = inhibition) at 10uM": 3.74}, {"smiles": "CCCCC(NS(=O)(=O)c1ccc(C)cc1)C(=O)Oc1ccc2c3c(c(=O)oc2c1)CCC3", "note": "(centres unmarked)", "hERG current change (%, negative = inhibition) at 10uM": 5.24}, {"smiles": "CN(NS(=O)(=O)c1ccc(Br)cc1)c1nc(C(F)(F)F)nc2ccccc12", "hERG current change (%, negative = inhibition) at 10uM": 12.2}, {"smiles": "CS(=O)(=O)N(CC(=O)NCCSc1ccccc1)c1ccc2c(c1)OCO2", "hERG current change (%, negative = inhibition) at 10uM": -20.9}, {"smiles": "CCCN(C(=O)COC(=O)CSc1ccc([N+](=O)[O-])cc1)C1CCS(=O)(=O)C1", "note": "(centres unmarked)", "hERG current change (%, negative = inhibition) at 10uM": -16.9}, {"smiles": "CC(=O)Nc1sc(C)c(C)c1CN1CCN(Cc2ccccc2)CC1", "hERG current change (%, negative = inhibition) at 10uM": -15.9}, {"smiles": "O=C(Nc1cc([N+](=O)[O-])ccc1Cl)c1cccnc1", "hERG current change (%, negative = inhibition) at 10uM": 5.85}, {"smiles": "Cl.Nc1cccc2c(O)cccc12", "hERG current change (%, negative = inhibition) at 10uM": 12.1}, {"smiles": "C=CCn1c(SCC(=O)c2cc(C)n(Cc3cccs3)c2C)nnc1-c1ccncc1", "hERG current change (%, negative = inhibition) at 10uM": -19.2}, {"smiles": "CCCOc1ccc(C2c3c(oc4ccccc4c3=O)C(=O)N2CCN(CC)CC)cc1OC", "note": "(centres unmarked)", "hERG current change (%, negative = inhibition) at 10uM": -14.7}, {"smiles": "Cc1nn(Cc2ccc(Cl)c(Cl)c2)c(C)c1NC(=O)c1noc2c1CCCCC2", "hERG current change (%, negative = inhibition) at 10uM": -3.7}, {"smiles": "COc1cccc(CN(C)C(=O)CN2C(=O)NC(c3ccccc3)(c3ccccc3)C2=O)c1", "hERG current change (%, negative = inhibition) at 10uM": -36.5}, {"smiles": "CC(=O)c1ccc(NC(=O)N2CCCC(C(=O)c3ccc4c(c3)OCO4)C2)cc1", "note": "(centres unmarked)", "hERG current change (%, negative = inhibition) at 10uM": -16.4}, {"smiles": "CCCN1CC(=O)N2C(c3cccc(OC)c3OC)c3[nH]c4ccccc4c3C[C@H]2C1=O", "note": "(some centres unmarked)", "hERG current change (%, negative = inhibition) at 10uM": -11.6}, {"smiles": "Cc1c(C(=O)N2CCCCC2)nn(-c2ccc(Cl)cc2)c(=O)c1C#N", "hERG current change (%, negative = inhibition) at 10uM": -17.5}, {"smiles": "CCN(CC)S(=O)(=O)c1cccc(C(=O)N/N=C/c2ccc(O)c(O)c2O)c1", "hERG current change (%, negative = inhibition) at 10uM": 11.4}, {"smiles": "Clc1ccc(Sc2ccc(/C=N/n3cnnc3)o2)cc1", "hERG current change (%, negative = inhibition) at 10uM": -31.4}, {"smiles": "COc1cccc(NC(=O)C2CCCN(S(C)(=O)=O)C2)c1", "note": "(centres unmarked)", "hERG current change (%, negative = inhibition) at 10uM": 26.4}, {"smiles": "COc1ccc(S(=O)(=O)NNC(=O)Nc2ccc(F)cc2F)c(OC)c1", "hERG current change (%, negative = inhibition) at 10uM": 0.893}, {"smiles": "Cc1ccc(NC(=O)CCSCCc2ccccn2)cc1", "hERG current change (%, negative = inhibition) at 10uM": 3.83}, {"smiles": "COc1ccc2c(c1)CC1(CN2C)C(=O)NC(=O)N(c2ccc(F)cc2)C1=O", "note": "(centres unmarked)", "hERG current change (%, negative = inhibition) at 10uM": 4.23}, {"smiles": "CC[N+](CC)(CC=C(C)C)CC(=O)OC.[Cl-]", "hERG current change (%, negative = inhibition) at 10uM": 20.8}, {"smiles": "O=C(NC1=NCCS1)C1CC(=O)N(c2ccc(Cl)cc2)C1", "note": "(centres unmarked)", "hERG current change (%, negative = inhibition) at 10uM": 8.41}, {"smiles": "COc1ccc(/C=C2\\SC(=S)N(CCCC(=O)N3CCN(C)CC3)C2=O)cc1", "hERG current change (%, negative = inhibition) at 10uM": -24.4}, {"smiles": "CCOC(=O)c1c(S(=O)(=O)NCC(=O)NCc2ccccc2)c(C)n(C)c1C", "hERG current change (%, negative = inhibition) at 10uM": 8.56}, {"smiles": "O=C(CSc1nc2ccccc2[nH]1)c1ccco1", "hERG current change (%, negative = inhibition) at 10uM": -4.74}, {"smiles": "O=C(Cn1nnc(-c2ccccc2)n1)NCc1ccco1", "hERG current change (%, negative = inhibition) at 10uM": 7.58}, {"smiles": "COc1ccc(C2Sc3nncn3N2Cc2ccc(C#N)cc2)cc1", "note": "(centres unmarked)", "hERG current change (%, negative = inhibition) at 10uM": -8.74}, {"smiles": "Cc1cc(/C=N\\NC(=O)c2cccs2)c(C)n1-c1ccc2ncccc2c1", "hERG current change (%, negative = inhibition) at 10uM": 3.27}, {"smiles": "Cc1sc(NC(=O)CSc2ncn(-c3ccccc3)n2)nc1-c1ccccc1", "hERG current change (%, negative = inhibition) at 10uM": -0.44}, {"smiles": "Cn1nccc1C(=O)Nc1ccc2c(c1)OCCO2", "hERG current change (%, negative = inhibition) at 10uM": -6.55}, {"smiles": "COc1cccc(/C=C2/Oc3ccccc3N(CC(=O)NCC3CCCO3)C2=O)c1", "note": "(centres unmarked)", "hERG current change (%, negative = inhibition) at 10uM": 14}, {"smiles": "CCOc1ccc(CCNC(=O)C2CCN(S(=O)(=O)CC)CC2)cc1OCC", "hERG current change (%, negative = inhibition) at 10uM": -4.28}, {"smiles": "CCCCN(C(=O)c1ccc2c(c1)OCO2)C1CCS(=O)(=O)C1", "note": "(centres unmarked)", "hERG current change (%, negative = inhibition) at 10uM": 5.61}, {"smiles": "CC(C)(C)OC(=O)[C@H](NC(=O)OCc1ccccc1)c1ccccc1", "hERG current change (%, negative = inhibition) at 10uM": -28.8}, {"smiles": "O=C(CN1CCN(C(=O)C2CCCO2)CC1)Nc1ccc(F)cc1", "note": "(centres unmarked)", "hERG current change (%, negative = inhibition) at 10uM": -66.1}, {"smiles": "CCC(C)NC(=O)c1ccc(NS(=O)(=O)c2ccc3[nH]c(=O)[nH]c3c2)cc1", "note": "(centres unmarked)", "hERG current change (%, negative = inhibition) at 10uM": 10.1}, {"smiles": "COc1ccc(COc2ncnc3ccc(Br)cc23)cc1F", "hERG current change (%, negative = inhibition) at 10uM": -23.1}, {"smiles": "Cc1cc(NS(=O)(=O)c2ccc(NC(=O)c3ccc(Cl)cc3Cl)cc2)no1", "hERG current change (%, negative = inhibition) at 10uM": 24.4}, {"smiles": "O=C(NN1C(=O)C2C3C=CC(C4CC34)C2C1=O)c1ccc(Cl)c(Cl)c1", "note": "(centres unmarked)", "hERG current change (%, negative = inhibition) at 10uM": 14.9}, {"smiles": "CCC(Sc1nc2ccccc2o1)C(=O)O", "note": "(centres unmarked)", "hERG current change (%, negative = inhibition) at 10uM": -4.78}, {"smiles": "CC(C)CN(C(=O)CSc1nnnn1-c1ccccc1)c1c(N)n(CC(C)C)c(=O)[nH]c1=O", "hERG current change (%, negative = inhibition) at 10uM": 14.5}, {"smiles": "CC(NS(=O)(=O)c1ccc(Cl)cc1)C(c1cccs1)N1CCN(C)CC1", "note": "(centres unmarked)", "hERG current change (%, negative = inhibition) at 10uM": -43.7}]}]}
